# About 40 (0.04%) of roughly 110,000 compounds were called active. The inconclusive results got no clear call from the source; some entries with a clear call stand among them for comparison. The call rests on the fitted dose curve; in most records, active means well fitted curve in the direction sought with a large enough effect in the signal ratio (not every such curve was filed as active); inconclusive means small, poorly fitted or top-dose-only effect, or a change in a side signal; inactive means flat fitted curve, though single readings scatter; the % refers to the signal ratio. Where the call is inconclusive, the potency comes from a doubtful curve fit.
# Assay: IkB Signaling;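 on IkBa stabilization activation: 0% = basal untreated cells and 100% = reference inhibitor full response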
# Conditions: ABC-DLBCL IkBa-CBG/CBR dual luciferase ratio (green luciferase fused to IkBa over red control in OCI-Ly3 lymphoma cells), 4 h; IkBa stabilization activation: at 57.1 µM (top of the series), scaled: untreated 0%, proteasome inhibitor 100% unless noted
# Method in brief: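 In this assay, an IκBα–CBG68 fusion accumulates when IKK-driven degradation is blocked; native CBR normalizes for cell number. OCI-Ly3 cells were treated 4 h with compound and doxycycline, then green and red light read after Chroma-Glo addition.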
# Potency means the concentration at half of the fitted maximal effect.
Compound,IkBa stabilization activation,Potency
Cc1nc(NCc2ccco2)c2oc3ccccc3c2n1,inactive,
O=C(O)C12CC3(C(=O)O)CC(C(=O)O)(CC(C(=O)O)(C1)C3=O)C2=O,"inactive: 0.269% [at 11.4 µM, scaled: untreated 0%, proteasome inhibitor 100%]",
COC(=O)c1ccc(NC(=O)CN(CCc2ccccc2)S(=O)(=O)c2ccc(OC)cc2)cc1,inconclusive: 4.71% [signal inhibitor],
CN(Cc1ccccc1)C(=O)CCCn1c(=O)[nH]c2cc(Cl)ccc2c1=O,inconclusive: 5.48% [signal inhibitor],
Cc1noc(C)c1C(=O)N1CCC2(CCCN(c3ccccc3)C2)CC1,"inactive: -0.309% [at 11.4 µM, scaled: untreated 0%, proteasome inhibitor 100%]",
COc1cccc(-c2nc3cc(C)ccc3o2)c1,inconclusive: 14.3% [signal inhibitor],
CCCC(=O)C1=C(c2ccc(C)cc2)N(C(=O)CCC)n2cnnc2S1,inactive,
CCN(CC)c1ccc(NC(=O)c2ccc(Br)o2)cc1,inactive,
O=C(Oc1ccccc1Cl)c1cc(-c2ccc3c(c2)OCCO3)on1,inactive,
CCN1CCN(c2cc(C)c3cc(NC(=O)c4cccc(Cl)c4)ccc3n2)CC1,inconclusive: -1.1% [signal inhibitor],
CCOc1ccccc1C1CC(=O)NC2=C1C(=O)CCC2 (stereo not given),inactive,
COc1ccc(C(=O)Nc2ccc(C)cn2)c(OC)c1,inconclusive: 3.95% [signal inhibitor],
Cc1ccc(NC(=O)c2cnc(N3CCCCC3)c3ccccc23)cc1Cl,inconclusive: 7.91% [signal inhibitor],
COC(=O)c1scc(-c2ccc(C)cc2)c1S(=O)(=O)Nc1cccc(Cl)c1C,inconclusive: 6.17% [signal inhibitor],
Cc1ccc(OCCn2cc(C(=O)c3ccco3)c3ccccc32)cc1C,,inconclusive: 1580 nM [signal inhibitor]
O=C(CCCCn1c(=O)c2ccccc2n(CC(=O)Nc2ccccc2)c1=O)NCc1ccccc1Cl,inconclusive: 3.21% [signal inhibitor],
CCN(CC)CCCNC(=O)C1CCN(S(C)(=O)=O)CC1,inactive,
O=C1C(Cl)=C(Nc2ccccc2O)C(=O)N1c1ccccc1,,"inconclusive: 100 nM [signal inhibitor, partial curve, poor fit]"
C/C(=N/NC1=NCCN1)c1cn(C2=NCCN2)nc1C,"inactive: 0.042% [at 11.4 µM, scaled: untreated 0%, proteasome inhibitor 100%]",
Cc1csc(Sc2nc3c(c(=O)[nH]c(=O)n3C)n2Cc2ccccc2Cl)n1,inactive,
Cc1oc(-c2ccc(C(=O)Nc3cccc(C(F)(F)F)c3)cc2)nc1CSc1ccccc1,inconclusive: -2.43% [signal inhibitor],
COc1ccc(-c2c(C#N)c(SCC(=O)Nc3ccc(Br)cc3)nc(C)c2C(=O)Nc2ccccc2)cc1,inconclusive: 0.107% [signal inhibitor],
O=C(CN(c1cc(C(F)(F)F)ccc1Cl)S(=O)(=O)c1ccccc1)NCCc1ccccc1,inconclusive: 5.82% [signal inhibitor],

Compound,IkBa stabilization activation,Potency
COC(=O)c1ccccc1NC(=O)c1cc2c(s1)-c1ccccc1OC2,inconclusive: 17.9% [signal inhibitor],
O=C(CSc1nc(-c2ccccc2)c2ccccc2n1)Nc1ccc(F)cc1,inconclusive: -1.98% [signal inhibitor],
COc1cc(C(=O)Nc2nccs2)ccc1OCc1c(C)noc1C,inconclusive: 2.37% [signal inhibitor],
Cc1cc(C)c(S(=O)(=O)NCCc2cc3ccc(C)cc3[nH]c2=O)c(C)c1,inconclusive: -3.75% [signal inhibitor],
CC1=C(C(=O)N2CCCCC2)C(c2cccc(Cl)c2)n2c(nc3ccccc32)N1 (stereo not given),inconclusive: -1.08% [signal inhibitor],
COc1ccc(-c2nnc(SCC(=O)c3ccc(C)o3)o2)cc1,inactive,
COc1ccc(-c2nc3nc(C)cc(Nc4cccc(C(F)(F)F)c4)n3n2)cc1,inactive,
O=C(CCCc1nc(-c2ccccc2)no1)Nc1cc(C(F)(F)F)cc(C(F)(F)F)c1,inconclusive: -2.52% [signal inhibitor],
Cc1ccc(-c2cc(-c3ccccc3Cl)[nH]n2)c(O)c1,inconclusive: -5.09% [signal inhibitor],
Cc1sc(-n2cccc2)c(C(C)NC(=O)Nc2ccccc2Cl)c1C (stereo not given),inconclusive: -1.84% [signal inhibitor],
CC1=C(C(=O)Nc2ccccc2C)C(c2ccco2)n2ncnc2N1 (stereo not given),inactive,
C=CCn1c(Cc2cccs2)nnc1SCC(=O)Nc1ccc(C(=O)OCC)cc1,inconclusive: 4.89% [signal inhibitor],
CCOC(=O)CSc1nnc(-c2ccc(Cl)cc2Cl)o1,inactive,
Cc1cccc(-c2nc3scc(CCNS(=O)(=O)c4ccc(F)cc4C)n3n2)c1,inconclusive: 3.86% [signal inhibitor],
Cc1ccc(NC(=O)c2cc(S(=O)(=O)NCCC3=CCCCC3)ccc2F)cc1C,inconclusive: 0.0608% [signal inhibitor],
CCc1ccc(NC(=O)c2sc3nc(C)c(C(=O)Nc4ccc(C)cc4C)c(-c4ccco4)c3c2N)cc1,inconclusive: 5.69% [signal inhibitor],
COc1ccc(Nc2sc(C(=O)c3ccccc3)c(N)c2C(=O)Nc2cc(C)ccc2C)c(OC)c1,inconclusive: 3.56% [signal inhibitor],
Cc1ccc(Cl)cc1N(CC(=O)N1CCCCCC1)S(C)(=O)=O,inconclusive: 5.17% [signal inhibitor],
O=NC1=C(c2c(O)[nH]c3ccccc23)CCCC1,inactive,
Cc1c(NC(=O)c2cc(-c3ccc(Br)cc3)on2)c(=O)n(-c2ccccc2)n1C,inconclusive: 10.8% [signal inhibitor],
COc1cc2c(C(=O)NC3CCCCCC3)cn(C)c(=O)c2cc1OC,inactive,
Cc1ccc(-c2nc3cnccn3c2Nc2ccc3c(c2)OCCO3)o1,inactive,

# Source: PubChem BioAssay AID445 (National Center for Advancing Translational Sciences (NCATS), 2006)
